# Measurements: publication PMC6919601, “Identification of Plasmodium dipeptidyl aminopeptidase allosteric inhibitors by high throughput screening” (PLoS ONE, 2019)
# The campaign covered roughly 110,000 compounds. About 230 (0.21%) showed an effect of 50% or more. The list shows a part of the results.
# Biological target: DPAP1 (Plasmodium falciparum, UniProt Q8IIJ9)
# Assay: primary screen, percent inhibition; read by cleavage of a fluorogenic dipeptide substrate; higher = more effect of the substance
# Set-up: species or system P. falciparum D10 trophozoite lysates; single well
# 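Also: 30 min substrate incubation versus DMSO and 10 µM JCP410 controls.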
# Chain of DPAP1 (Q8IIJ9 whole entry, looked up): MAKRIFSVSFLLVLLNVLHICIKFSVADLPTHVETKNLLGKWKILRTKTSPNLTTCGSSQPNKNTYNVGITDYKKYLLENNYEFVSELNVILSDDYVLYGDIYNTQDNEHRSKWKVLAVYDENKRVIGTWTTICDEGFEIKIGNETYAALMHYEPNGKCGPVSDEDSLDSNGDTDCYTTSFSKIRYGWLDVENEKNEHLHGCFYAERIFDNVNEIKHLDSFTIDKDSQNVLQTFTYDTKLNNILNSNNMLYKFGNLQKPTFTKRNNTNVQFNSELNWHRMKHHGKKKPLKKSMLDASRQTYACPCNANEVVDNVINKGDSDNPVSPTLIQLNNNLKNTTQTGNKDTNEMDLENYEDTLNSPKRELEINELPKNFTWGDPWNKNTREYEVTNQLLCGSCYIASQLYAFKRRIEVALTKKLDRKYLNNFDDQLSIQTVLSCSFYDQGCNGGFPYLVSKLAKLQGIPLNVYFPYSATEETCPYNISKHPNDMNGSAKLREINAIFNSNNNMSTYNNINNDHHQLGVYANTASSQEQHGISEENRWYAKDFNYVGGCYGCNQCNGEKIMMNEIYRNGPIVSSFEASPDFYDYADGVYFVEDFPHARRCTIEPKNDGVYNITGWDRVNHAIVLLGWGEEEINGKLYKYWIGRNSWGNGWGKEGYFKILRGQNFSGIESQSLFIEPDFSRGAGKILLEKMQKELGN
row,Structure (SMILES),% Inhibition @ 10 uM
1,CCOc1c(Cl)cc(C(=O)Nc2ccc(C(C)=O)cc2)cc1Cl,18.7%
2,O=C(Nc1ccccc1C(=O)NCC1CCCO1)c1ccccc1 (stereo not shown),0.324%
3,CCN1C=C(C(=O)OC)C(c2cccc(OC)c2OC)C(C(=O)OC)=C1,1.88%
4,O=C1c2cccnc2C(=O)N1Cc1ccc(S(=O)(=O)NCc2ccc(Cl)cc2)s1,2.48%
5,Cc1nc2ccn(Cc3cccnc3)c(=O)c2cc1C(=O)NCc1cccs1,-7.5%
6,CCCn1c2ccccc2c2cnn(CC(=O)N3CCCCCC3)c(=O)c21,0.928%
7,COc1cccc(CN(C(=O)c2ccc(OC(C)C)cc2)C2CCS(=O)(=O)C2)c1 (stereo not shown),-6.85%
8,O=C1/C(=C/c2ccccc2OCc2ccccc2)Sc2ccccc21,1.27%
9,CCN(CC)C(=O)Cn1cc(SCC(=O)N2CCCCC2)c2ccccc21,-3.73%
10,CCCC(=O)Nc1nn2c(COc3ccc(C)cc3)nnc2s1,-2.79%
11,O=S(=O)(c1ccc2ccccc2c1)N1CCn2c(nc3ccccc32)C1,2.34%
12,Cn1c(=O)c2c(nc(Oc3ccc4c(c3)OCO4)n2Cc2ccc(F)cc2)n(C)c1=O,-0.511%
13,CC(=O)c1cccc(N2C(=O)C3CC=C(Cl)CC3C2=O)c1 (stereo not shown),-8.35%
14,Cc1nc2c(sc3nc4ccccc4cc32)c(=O)n1-c1ccccc1,3.62%
15,CC1CCN(S(=O)(=O)c2ccc3c(ccn3CCC(=O)NCc3ccccc3Cl)c2)CC1,-5.04%
16,Cc1ccc2oc(=O)c3cnn(CC(=O)N4CC=C(c5ccccc5)CC4)c3c2c1,1.62%
17,CN(C)c1nc(N)nc(-c2cccnc2)n1,2.62%
18,O=C(O)/C(=C/c1ccc2c(c1)OCO2)NC(=O)c1ccco1,-6.41%
19,CNc1nc(Oc2ccc(O)nn2)nc(N(C)C)n1,-8.78%
20,CCOc1ccc(CCNC(=O)c2cc3sccc3n2C)cc1,0.291%
21,COc1ccc(C(=O)COc2ccc3c(C)c(Cl)c(=O)oc3c2)cc1,2.89%
22,Cc1ccc(C(=O)OC(C)CN2CCCC2)cc1 (stereo not shown),-0.0626%
23,O=C1C2CC=CCC2C(=O)N1c1cccc(C(F)(F)F)c1 (stereo not shown),4.32%
24,Cc1ccc(C(=O)N2CCCc3ccccc32)cc1,-4.15%
25,Cc1ccc(N2C(=O)c3cccnc3C2=O)nc1,3.96%

row,Structure (SMILES),% Inhibition @ 10 uM
1,O=C(O)c1cccc(NC(=O)c2ccc(Cl)c([N+](=O)[O-])c2)c1,-3.13%
2,CC1(C)CC(NCC(=O)OC2CCCCC2)CC(C)(C)N1,-1.82%
3,CCN(CC)c1ccc2nnc(CCC(=O)NCCC3=CCCCC3)n2n1,-1.68%
4,N#Cc1nc2c(-c3nc4ccccc4s3)c(N)n(CCc3ccccc3)c2nc1C#N,6.12%
5,OC(CN1CCCCC1)Cn1c2ccccc2c2cc(Cl)ccc21 (stereo not shown),-3.27%
6,CCOc1ccc(N2C(=O)/C(=C/c3ccc(Br)o3)C(=O)NC2=S)cc1,21.6%
7,O=C(CNC(=O)c1cccs1)NCCC1=CCCCC1,3.66%
8,Cc1cc(-c2ccc(S(=O)(=O)NC3CCCCCC3)s2)on1,-0.695%
9,CCCN(CCC)c1c(N2CCN(C(=O)OCC)CC2)c(=O)c1=O,0.277%
10,O=C(Cc1ccc(-n2cccc2)cc1)NCc1ccc(F)cc1,-5.76%
11,COc1ccccc1NS(=O)(=O)c1c(C(C)C)cc(C(C)C)cc1C(C)C,3.25%
12,COc1ccc(/C=C/C(=O)c2c(C)cc(C)nc2O)c2ccccc12,-2.7%
13,COc1ccccc1/C=c1\sc2nc(-c3cccs3)nn2c1=O,1.91%
14,CCOC(=O)c1cnc2c(C)c(Cl)ccc2c1NCc1ccco1,-2.87%
15,Nc1nc(-c2ccc(O)cc2O)cs1,-4.32%
16,Cc1cc(/C=C2/SC(=O)N(C)C2=O)c(C)n1-c1ccncc1,2.38%
17,Cc1cccc(C(=O)n2nc(-c3ccco3)nc2NCc2ccc(Cl)cc2)c1,0.0367%
18,CCCCCCOc1ccc(CN2CCN(c3cccc(C(F)(F)F)c3)CC2)cc1,-3.15%
19,N#CCNC(=O)[C@H](Cc1c(F)cccc1F)NC(=O)c1ccc(-c2cc(C(=O)O)ccc2Cl)cc1,0.079%
20,C=CCN(Cc1cccc(Cl)c1)C(=O)Nc1ccccc1,-8.36%
21,O=C(c1ccccc1)N1CCN(c2cc(Cl)ccc2Cl)CC1,-6.05%
22,COc1ccc(NC(=O)CN(c2ccc(C)cc2C)S(C)(=O)=O)cc1,-3.28%
23,CC(C)C(=O)N1c2ccccc2N=C2CC(C)(C)CC(O)=C2C1c1cccs1 (stereo not shown),-5.14%
24,O=C(Cn1cc(C(=O)C(F)(F)F)c2ccccc21)NCc1ccccc1,-3.28%
25,Oc1ccc(C2CC3CCC2C3)cc1O (stereo not shown),-1.77%

row,Structure (SMILES),% Inhibition @ 10 uM
1,Cc1ccsc1-c1nc(CSCC(=O)NCCN2CCCC2)c(C)o1,-4.71%
2,CCc1ccc(-c2nc3cc(N)ccc3o2)cc1,-3.82%
3,CCC(C(=O)c1ccccc1)n1nnc2ccccc2c1=O (stereo not shown),-0.0108%
4,O=C(CSc1nnc(CNC(=O)c2ccco2)o1)Nc1nc2ccccc2s1,1.85%
5,C=Cc1ccc(CSc2cc(C)nc3nc(C)nn23)cc1,1.3%
6,COc1cc(OC)c(C2CC(c3c(O)cc(C)oc3=O)=NCCS2)cc1OC (stereo not shown),3.31%
7,COc1ccc(-c2cc(C(=O)Nc3cccnc3)c3ccccc3n2)cc1,-7.56%
8,CC(C)c1ccc(OCC(=O)N(Cc2ccco2)Cc2ccco2)cc1,-1.07%
9,Cc1ccc(OCC(=O)N2CCN(c3ccccc3)CC2)cc1,-3.48%
10,COC(=O)c1ccc(C2c3c(oc4ccccc4c3=O)C(=O)N2c2nnc(C(C)C)s2)cc1 (stereo not shown),-6.23%
11,O=C(Nc1cc(O)ccc1C(=O)O)c1cccc(Br)c1,7%
12,CCCN1CCN(C(=O)Cn2ncc3c4ccccc4n(Cc4c(C)cc(C)cc4C)c3c2=O)CC1,-0.0741%
13,Cc1oc2c(C)c3oc(=O)c(CC(=O)NCc4ccccc4)c(C)c3cc2c1C,-6.29%
14,O=C(Cc1ccccc1)n1nc(-c2cccnc2)nc1NCc1ccc(F)cc1,2.21%
15,N#Cc1c(-c2ccccc2)cc(-c2cccc(Br)c2)c(C#N)c1N,-1.86%
16,CS(=O)(=O)N1CCc2cc(C(=O)Nc3ccccc3Cl)ccc21,-5.21%
17,CCOc1ccc(-c2nn(-c3ccccc3)cc2C2NC(=O)NC(C)=C2C(=O)OC)cc1C (stereo not shown),-7.58%
18,Cc1cccc(N(C)C(=O)c2cnn(-c3ccccc3)c2C)c1,6.7%
19,CC(=O)c1c(C)nn(CC(O)COc2ccc(-c3ccccc3)cc2)c1C (stereo not shown),0.895%
20,O=C(NCCc1ccc(O)cc1)c1ccccn1,-3.5%
21,Fc1cccc(Cl)c1CN1CCN(Cc2ccccc2)CC1,0.273%
22,CC(=O)Nc1ccc(NC(=O)Cn2cnc3c2c(=O)n(C)c(=O)n3C)cc1,2.55%
23,Cc1cccc(-c2nc(CSCC(=O)NCCN3CCCCCC3)c(C)o2)c1,3.99%
24,Cc1ccc(C2CC(=O)N=C(NC(=O)c3ccc(Cl)cc3)N2)cc1 (stereo not shown),3.89%
25,CC1=C(C(=O)Nc2cccc(Cl)c2)C(c2cccc(Cl)c2)NC(=O)N1 (stereo not shown),2.36%

row,Structure (SMILES),% Inhibition @ 10 uM
1,O=C1c2cccnc2C(=O)N1Cc1ccc(S(=O)(=O)N2CCCC3CCCCC32)cc1 (stereo not shown),0.107%
2,C=Cc1ccc(Cn2c(C)c(CNCCc3ccccc3)c(C(=O)O)c2C)cc1,1.41%
3,Cc1nc2ccccc2n1CCc1nc2c3ccccc3nc(N3CCC(N4CCCCC4)CC3)n2n1,-0.692%
4,CC1=C(C(=O)N2CCOCC2)C(c2ccc3c(c2)OCO3)C2=C(O)CC(C)(C)CC2=N1 (stereo not shown),0.219%
5,O=C(O)CCCn1ccc2cc(S(=O)(=O)N3CCCC3)ccc21,3.24%
6,COc1ccc(Br)cc1CN1CCC(C)CC1,-2.21%
7,COc1cccc(NC(=O)Nc2ccc(Cl)cc2)c1,-2.21%
8,CC(=O)c1ccc(S(=O)(=O)NCc2csc(-c3ccccc3)n2)cc1,-4.24%
9,Nc1ccc(Nc2ccc([N+](=O)[O-])cc2S(=O)(=O)O)cc1,-0.687%
10,O=C(NC1CCCCC1NC(=O)C1CCCCC1)C1CCCCC1 (stereo not shown),3.65%
11,Cc1nc2nc(-c3ccc(Cl)cc3Cl)nn2c(C)c1CCC(=O)NC1CCCC1,2.57%
12,CC(NCc1ccc2c(c1)OCO2)C12CC3CC(CC(C3)C1)C2 (stereo not shown),2.93%
13,COc1cc2c(-c3cccnc3)nc3c(cnn3-c3ccccc3)c2cc1OC,2.53%
14,Cc1cc(C)c2c(=O)c3c(oc2c1)C(=O)N(CCO)C3c1cccc(Br)c1 (stereo not shown),4.83%
15,C=C(C)[C@@H]1CC=C(CN2CC(C)OC(C)C2)CC1 (stereo partly shown),-1.78%
16,CCOc1ccc(C(=O)NCc2ccccc2OC)cc1,3.65%
17,COc1ccc(/C=C2\SC(=O)N(Cc3ccc(F)cc3)C2=O)cc1,7.39%
18,Cc1nc2c3ccccc3n3c(CCCC(=O)N4CCC(Cc5ccccc5)CC4)nnc3n2n1,5.09%
19,Cn1c(SCc2cccc(Br)c2)nc2c1c(=O)[nH]c(=O)n2C,3.05%
20,CC(Oc1ccc(Cl)cc1Cl)C(=O)Nc1ccc(S(N)(=O)=O)cc1 (stereo not shown),-0.759%
21,CCOC(=O)N1CCN(C(=O)C2CCCN(c3nc4ccc(OCC)cc4s3)C2)CC1 (stereo not shown),0.137%
22,Cc1ccc(C(=O)Nc2ccccc2)cc1S(=O)(=O)N1CCOCC1,-5.28%
23,Oc1ccc(/C=C/c2cc(O)n3nnnc3n2)cc1,3.5%
24,COc1ccc(C(=O)N2CCN(c3cccc(C)c3C)CC2)cc1,5.24%
25,O=C(O)CCNc1cn2c(n1)CCC2,2.86%
